Assay results reported in article PMC10478803 (2023).

B1: NF[WT]-pCj1 peptide, C-terminally-flanked version of NF-pCj1 (16-residue) (peptide)
peptide: DKSMKVTVAFNQFGPN
B2: NF[S(P–2)E/K(P–3)E]-pCj1 peptide, S(P–2)E/K(P–3)E mutant of the C-terminally-flanked NF-pCj1 (16-residue) (peptide)
chain: DEEMKVTVAFNQFGPN

Target: HLA-DP5 (DPA1*02:02 and DPB1*05:01), full-length, expressed in HEK293 cells (human)
Experiment: FACS; competition with biotin-HA1 peptide (10 ug/mL)

Binder	IC50 [µg/mL]
B1	39.4
B2	79.7
